For 57 compounds, TGI and GI50 results are on record in PubChem BioAssay (NCI).

The subject of this assay is NCI-H322M lung. The assay is described as follows: DTP human tumour cell line panel, 48 h.

“And” between values parts separate entries of the source, which are not always exact repeats. Identical values can stand only once.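 Where inhibition never reached the appropriate level, the endpoint shown equals the highest concentration tested. Otherwise, values were interpolated linearly from a five-concentration, 48-hour dose response in 96-well plates. GI50 marks 50% less growth. TGI is the concentration that stops growth completely.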 Numbered stars: 1 amine (or outer) side, 2 acyl side, 3 side chain; on linkers, the order of the positions; unused ones are H or OH. Peptide text beside a SMILES is read from it. * marks the point of attachment. γGlu = O=C(O)[CH](CCC(=O)[*:2])N[*:1]; NHOH = ON*

The TGI is the concentration giving total growth inhibition. A higher TGI goes with lower sensitivity of the cells. With `O=NN(CC1(O)OCC(O)C(O)C1O)C(Cc1c[nH]c2ccccc12)C(=O)O` (stereo not given), the concentration for total growth inhibition (TGI) was > 100 µM.

For the compound `O=S(=O)(c1ccccc1)N1CCC1c1ccccc1` (stereo not given), the TGI is > 100 µM.

What is called GI50 is the concentration giving 50% growth inhibition. On to `Cc1ccc(/C=C/C(=O)c2ccc(F)cc2)s1`, for which the GI50 is 11.5 µM and the TGI came to 25.1 µM.

For the compound `C=CC(=O)N1CCN([C@@H](CC2CC2)c2ccc([C@H](C)Nc3ncc4c(n3)N(CC)C(=O)OC4)cc2)CC1`, the GI50 was 11.4 µM and the TGI is 24.3 µM.

For `CC1=C[C@H](C[C@]2(C)c3c(c4c(C)cccc4oc3=O)O[C@@H]2C)OC1=O`, the TGI is > 100 µM.

With `O=[N+]([O-])c1ccc(Cl)c(C2CC(c3cccc4ccccc34)=Nc3ccccc3S2=O)c1` (stereo not given), the TGI was > 100 µM.

As to `COc1cc(-c2csc(NC(=O)Nc3ccc(Cl)cc3)n2)cc(OC)c1OC`, the GI50 is 2.76 µM and the TGI is 13 µM.

For the compound `COc1cc2c(c3nc4ccccc4nc13)-c1ccc(SC)c(=O)cc1[C@@H](NC(C)=O)CC2`, the TGI is > 100 µM.

For the compound `[Cu].c1ccc2c(c1)C1=NC2=NC2=NC(=NC3=NC(=NC4=NC(=N1)c1ccccc14)c1ccccc13)c1ccccc12`, the GI50 was > 100 µM and the TGI was > 100 µM.

Take `O=C1C2C3SC(c4cc5ccccc5cc43)C2C(=O)N1c1ccccc1` (stereo not given): the TGI is > 100 µM.

Regarding `CN(C(=O)Cc1cc(Cl)c(Cl)cc1NC(=O)CCCN)[C@H]1CCCC[C@@H]1N1CCCC1`, the total growth inhibition concentration (TGI) was > 100 µM.

With `CCOP(=O)(OCC)/C(C#N)=C/c1nc[nH]c1C`, the total growth inhibition concentration (TGI) is > 100 µM.

Compound `CCCSc1ccc2[nH]c(N3C(=O)/C(=C/c4ccc(O)c(OC)c4)N=C3c3ccccc3)cc2c1` gave a TGI of 22.8 µM.

Consider `OC1CCN2Cc3ccccc3N=C12` (stereo not given), for which the TGI was > 100 µM.

For the compound `CCCCCCCCCCCC(c1ccccc1)[N+](C)(C)C` (stereo not given), the GI50 is 2.28 µM and the TGI worked out at 7.46 µM.

As for `OC1C2CN3CCN(C2)CC1(c1ccccc1)C3` (stereo not given), the TGI is > 100 µM.

As for `CC(=O)Nc1ccc(CC[C@H]2CCC/C=C/[C@@H]3C[C@H](O)C[C@H]3[C@H](O)/C=C/C(=O)O2)cc1`, the GI50 was 0.204 µM and the TGI worked out at 5.19 µM.

Consider `Nc1nc(N)c2cc(S(=O)(=O)c3cccc(C(F)(F)F)c3)ccc2n1`, for which the GI50 is 5.42 µM and the TGI is > 100 µM.

For the compound `O=C1c2cccnc2S(=O)(=O)N1c1ccc(Br)cc1`, the TGI is > 100 µM.

Take `CCC(=O)N1C(=S)SC[C@H]1C(=O)OC`: the total growth inhibition concentration (TGI) is > 100 µM.

Turning to `Cc1cc[c]([Sb]2[O]C(CO)C(C(O)C(O)C(=O)O)[O]2)cc1` (stereo not given), the GI50 is 65.6 µM and the TGI is > 100 µM.

In the case of `CN1CCN(c2cc(F)c(NC3=C(Cl)C(=O)c4ncccc4C3=O)c(F)c2)CC1`, the GI50 is 13.9 µM and the TGI is 27.2 µM.

In the case of `CCN(Cc1ccccc1)c1ccc(/C=C2\COc3ccccc3C2=O)cc1`, the GI50 is > 1000 µM and the TGI is > 1000 µM.

On to `COC(=O)[C@H](Cc1ccccc1)NC(=O)N(CCN(CCC#N)C(=O)N[C@H](C(=O)OC)C(C)C)c1ccccc1`, for which the TGI was > 100 µM.

The compound `CCCCCCc1cc2cc(C(=O)Nc3nc(C45CC6CC(CC(C6)C4)C5)cs3)c(=O)oc2cc1O` yielded a total growth inhibition concentration (TGI) of 57.6 µM.

In the case of `COc1ccc(CC(C)NCC(O)c2ccc(O)c(NC=O)c2)cc1` (stereo not given), the TGI is > 100 µM.

Take `[O-]c1ccccc1C=NCCN=Cc1ccccc1[O-].[O]=[U+2]=[O]`: the GI50 was 31.3 µM and the TGI was > 100 µM.

`CCC(C)[C@@H]1NC(=O)[C@@H]2CCCN2C(=O)C(CC(O)CCl)OC(=O)CCNC(=O)[C@H](C)N(C)C(=O)[C@H](C(C)C)N(C)C1=O` (stereo not given in full) (HELM PEPTIDE1{[CCC(C)[C@H](N[*:1])C(=O)[*:2]].[meV].[meA].[bAla].[O=C(C(CC(O)CCl)O[*:1])[*:2]].P}$PEPTIDE1,PEPTIDE1,1:R1-6:R2$$$V2.0): the TGI is > 100 µM.

Consider `COc1cc2c(cc1OCCCCCOc1ccc(-c3nc4ccccc4s3)cc1)N=C[C@@H]1CCCN1C2=O`, for which the GI50 is 7.78 µM and the TGI was > 74.9 µM.

Take `COC(=O)C12CCCN1CCC2`: the TGI was > 100 µM.

The compound `CCCCCCCCCCCCCOCCOCCOCCCCC(O)CCCCCCCCCC1=C[C@H](C)OC1=O` (stereo not given in full) displayed a total growth inhibition concentration (TGI) of 48.6 µM.

As to `CCOc1ccc2nc3cc(N)ccc3c(N)c2c1`, the GI50 is 2.62 µM and 2.33 µM; the TGI is 12.4 µM and 8.84 µM.

With `CC(C)N1CCOC(c2ccc(O)c(O)c2)C1` (stereo not given), the TGI is > 100 µM.

Consider `COc1cc(OC)c(OC)cc1/C=C/c1ccccn1`, for which the TGI is > 10 µM.

On to `COc1ccc(Nc2nc3ccccc3nc2-c2cccs2)cc1OC`, for which the TGI is > 10 µM.

In the case of `C=C(C)[C@@H]1CC[C@]2(C(=O)OC)CC[C@]3(C)[C@H](CC[C@@H]4[C@@](C)(CCc5nn[nH]n5)[C@H](C(=C)C)CC[C@]43C)[C@@H]12`, the GI50 is 17.4 µM and the concentration for total growth inhibition (TGI) turned out to be 38 µM.

For the compound `Cc1cnoc1/N=C1\C=C(Nc2oncc2C)C(=O)c2ccccc21`, the TGI was > 100 µM.

The compound `O=C(CSc1nc2ccccc2c(=O)n1-c1ccccc1)N=Nc1c(O)[nH]c2ccc(Br)cc12` registered a TGI of 13 µM.

With `O=C(Nc1ccc(Nc2ccc3c(c2)C(=O)c2ccccc2C3=O)c2c1C(=O)c1ccccc1C2=O)c1ccccc1`, the TGI is > 100 µM.

As for `CC(C)Cn1cnc2c(N)nc3ccccc3c21`, the GI50 was 99 µM and the TGI is > 100 µM.

In the case of `COc1ccc(C2c3cc4c(cc3OC(N3CCOCC3)C2C)OCO4)cc1OC` (stereo not given), the TGI was > 100 µM.

As for `NC(CCC(=O)NC(CCC(=O)NO)C(=O)NCC(=O)O)C(=O)O` (stereo not given) (γGlu-Glu(NHOH)-Gly-OH; configuration not given here), the TGI was > 100 µM.

`CCN(CC)C(=O)c1cccc2c(OC)ccc(OC)c12`: the concentration for total growth inhibition (TGI) was > 100 µM.

Take `CN(C)CCNc1c(O)c2c(c(O)c1Cl)C(=O)C=CC2=O`: the TGI turned out to be 4.58 µM.

`COc1cc2ncnc(Nc3cccc(Br)c3)c2cc1OC`: the TGI amounted to 46.3 µM.

As for `CC(C)C(Sc1nc(-c2ccccc2)c(-c2ccccc2)[nH]1)C(=O)N/N=C/c1ccc(Cl)cc1` (stereo not given), the TGI is > 100 µM.

Consider `CN(c1ccccc1)c1nc(=[N+](C)C)ss1`, for which the TGI is > 100 µM.

With `O=c1[nH]c(=O)n(Cc2ccc(C34CC5CC(CC(C5)C3)C4)c(O)c2)cc1F`, the GI50 is 17.9 µM and the TGI stood at 34 µM.

`O=c1oc2ccccc2cc1P(=O)(O)O`: the TGI was > 100 µM.

With `Cc1cc2c(cc1Cl)SC(=Nc1ccc(Cl)cc1)N(S(=O)(=O)c1ccc(Br)s1)S2(=O)=O`, the GI50 was 20.5 µM and the TGI stood at 51.8 µM.

`O=C(c1ccccc1)[C@H]1Nc2ccc(Cl)cc2[C@H]2c3ccccc3O[C@H]21` showed a TGI of 28 µM.

Consider `Cc1ccc2[nH]c3c(c2c1)C1CCC(C(C)(C)C)CC1C1C(=O)N(c2ccc(Oc4ccccc4)cc2)C(=O)C31` (stereo not given), for which the TGI was > 100 µM.

In the case of `c1ccc2[nH]c(-c3ccc(Nc4nc(N5CCCC5)nc5[nH]ncc45)cc3)nc2c1`, the GI50 was 2.12 µM and the TGI was found to be 8.79 µM.

`O=[N+]([O-])C1=Cc2c(O)ccc(O)c2C2OC=CC12` (stereo not given) had a TGI of 59.7 µM.

Turning to `[N-]=[N+]=NC1C(Cl)C(=O)NC(=O)N1[C@H]1C[C@H](O)[C@@H](CO)O1` (stereo not given in full), the concentration for total growth inhibition (TGI) was > 100 µM.

With `CC1=NN(c2ccccc2)C(=O)/C1=C1\SC(c2ccccc2)(c2ccccc2)c2ccccc21`, the TGI is > 100 µM.

Take `N#C/C=C(/NC(=O)Nc1ccccc1)N1CCCC1`: the TGI is > 100 µM.
